Test [1] has as its target Rad53 (budding yeast (endogenous locus, W303 derivative)) (UniProt P22216). The test is described as follows: co-IP; yeast whole-cell extract incubated with anti-Flag or anti-HA beads for 2 h at 4°C; lysis buffer 20 mM HEPES-KOH pH 7.5, 100 mM KOAc, 1% Triton X-100, 2 mM Mg(OAc)2; wild-type and mms22^RIM cells, normal growth and MMS-treated.
Test [2] concerns the target T1, Rtt107 (budding yeast (endogenous locus, W303 derivative)) (UniProt P38850).
T1 sequence: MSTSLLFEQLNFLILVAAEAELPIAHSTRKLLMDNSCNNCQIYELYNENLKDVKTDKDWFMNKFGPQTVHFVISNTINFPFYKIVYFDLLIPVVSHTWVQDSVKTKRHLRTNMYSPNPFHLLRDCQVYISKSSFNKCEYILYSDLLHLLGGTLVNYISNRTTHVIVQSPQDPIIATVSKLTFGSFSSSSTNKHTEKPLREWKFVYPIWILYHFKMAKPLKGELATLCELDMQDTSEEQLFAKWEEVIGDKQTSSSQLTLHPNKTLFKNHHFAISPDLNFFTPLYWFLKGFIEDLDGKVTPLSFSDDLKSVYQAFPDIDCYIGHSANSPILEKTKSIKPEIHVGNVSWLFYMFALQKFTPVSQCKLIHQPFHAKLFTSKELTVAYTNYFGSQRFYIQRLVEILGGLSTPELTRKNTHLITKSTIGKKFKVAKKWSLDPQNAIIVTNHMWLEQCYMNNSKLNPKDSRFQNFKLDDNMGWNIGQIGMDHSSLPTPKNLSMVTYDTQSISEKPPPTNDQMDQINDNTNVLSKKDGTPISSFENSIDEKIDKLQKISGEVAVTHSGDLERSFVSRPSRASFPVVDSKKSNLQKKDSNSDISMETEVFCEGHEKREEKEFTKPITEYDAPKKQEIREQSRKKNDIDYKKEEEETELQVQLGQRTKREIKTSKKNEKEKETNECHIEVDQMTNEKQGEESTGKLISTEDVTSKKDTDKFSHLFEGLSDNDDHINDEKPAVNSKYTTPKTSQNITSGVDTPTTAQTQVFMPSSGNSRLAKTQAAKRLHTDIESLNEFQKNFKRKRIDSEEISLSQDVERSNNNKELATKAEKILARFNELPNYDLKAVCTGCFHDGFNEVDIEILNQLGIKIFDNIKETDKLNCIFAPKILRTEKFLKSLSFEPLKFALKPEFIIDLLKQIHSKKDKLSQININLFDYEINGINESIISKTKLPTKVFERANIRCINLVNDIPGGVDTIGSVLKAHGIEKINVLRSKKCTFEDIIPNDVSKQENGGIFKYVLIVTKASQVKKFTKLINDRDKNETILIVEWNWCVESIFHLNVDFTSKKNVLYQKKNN
The test is described as above.

By UniProt entry, the sequences of proteins in these tests, tags left out.
UniProt P22216: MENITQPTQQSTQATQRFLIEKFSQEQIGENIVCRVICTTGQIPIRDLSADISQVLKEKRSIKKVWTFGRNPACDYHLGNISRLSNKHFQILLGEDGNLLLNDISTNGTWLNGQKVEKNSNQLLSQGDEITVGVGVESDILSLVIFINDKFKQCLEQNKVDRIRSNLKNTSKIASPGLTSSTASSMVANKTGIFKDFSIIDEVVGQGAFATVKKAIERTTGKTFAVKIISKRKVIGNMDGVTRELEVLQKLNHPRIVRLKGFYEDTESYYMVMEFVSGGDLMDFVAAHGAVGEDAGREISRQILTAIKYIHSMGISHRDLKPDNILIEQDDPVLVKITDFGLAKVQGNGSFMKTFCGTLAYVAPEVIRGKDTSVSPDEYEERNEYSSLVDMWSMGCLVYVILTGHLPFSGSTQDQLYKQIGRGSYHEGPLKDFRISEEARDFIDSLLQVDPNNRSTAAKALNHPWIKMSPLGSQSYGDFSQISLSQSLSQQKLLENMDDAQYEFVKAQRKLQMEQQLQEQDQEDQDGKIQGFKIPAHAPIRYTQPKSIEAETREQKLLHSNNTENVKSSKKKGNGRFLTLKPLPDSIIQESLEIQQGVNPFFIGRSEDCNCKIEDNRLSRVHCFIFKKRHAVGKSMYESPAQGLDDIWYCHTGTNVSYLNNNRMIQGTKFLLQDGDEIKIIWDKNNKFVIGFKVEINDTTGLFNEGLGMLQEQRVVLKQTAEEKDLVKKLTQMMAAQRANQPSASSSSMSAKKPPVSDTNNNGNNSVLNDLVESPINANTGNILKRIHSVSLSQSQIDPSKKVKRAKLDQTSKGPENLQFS
UniProt P32447: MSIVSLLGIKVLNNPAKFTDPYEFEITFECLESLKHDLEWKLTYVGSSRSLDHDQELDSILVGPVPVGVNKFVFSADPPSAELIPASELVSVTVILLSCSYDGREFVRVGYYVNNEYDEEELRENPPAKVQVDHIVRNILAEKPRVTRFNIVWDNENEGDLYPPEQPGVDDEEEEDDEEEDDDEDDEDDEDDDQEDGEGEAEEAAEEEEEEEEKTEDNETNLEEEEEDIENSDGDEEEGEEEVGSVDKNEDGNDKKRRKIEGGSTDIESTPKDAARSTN

These are yes or no findings as the source states them, for the method shown. In cells and extracts the contact can be indirect. Some entries that bind do so weakly or less than the wild type.

On to Asf1 (from UniProt P32447 1-279), for which the binding entry in test [1] is “binds”.

B1: Mms22 (protein, UniProt Q06164 1-1454)
chain: MDVDEPNPIVISDSEATDEEISIIYEPEFNENYLWAEENVQEASRSQKIVTERLSLDSTAGESCTPSVVTDTQVTTGLRWSLRKRKAIQKMPYSLERIKHRQLLEGYDISSFDSISNQLTLPKNASTVIHSNDILLTKRTGKPLDEQKDVTIDSIKPENSSVQSQRYDSDEEIPKKRHRTFKDLDQDIVFQSGDSTEDEQDLASTNLQNTQNDEVIFRGRVLNVRTGYRGVLPRVAWEKSLQKQQSSKVTKRKTQLLNHKGVAKRKMNRSAHIEDEEQNLLNDLIAPDDELDIEENAPPDIYLGNLPEDREANEKELKELQEYYESKYSEDAQSAGTSGFNLNEEYRNEPVYELEYDGPGSCISHVSYKDQPIIYLNSRHSDSGFSEQYNISAEDNQSVISLDAAEEHNDGIIDKMLVKPKRIKATNDANFLNTKSKRVRRYKYKYRNSCLAPSTKAIKVGKRSAHKSHLAANNPVSFVSKKNHVIDDYFFEELESQSLEQDDSSSLKPQKKRRKKKAPIYSSFSADLESRRKPVFNTVVEVPTNRYAFTKPNVRNRDSINHDMEFEEEDSNQELGPIMVVLDSILLKKPFEPPNFFKIQLSDKSFLLSKLNPADIATSLQKIFRVIIDKGITDTELVHFNESLIAFLVHLDMPELFDLIGEFHREFRSKVNSLRKKAKPIHFFQIAACQLMFLEISRYNKISAAAKFDMDVKLLDHIVSFFKLLSVCYDSVMKNPMQYLYTSYYILSAVVDVIHKKEALWDLFQKHPFSPHISLLLVNIFPTKVCRWQVLRLDSEFQPLSSAFRFINYCIETCNWNVTNSLILSLDRIFKRRRFSDFEEESDLSQNNKIIYPPTNQLTSRLMFNRYLHLLTLCELSSSDTQRVIPMGDISMNDSLSVLKNRLNLLIVLATRFDLNLEKRFQELTRPLYSKEYLNLHTQNTVRTITTLIMQASLSFLEISRIKNHPFSGKFIASLFDKLVLQQPSISGVTENFLKEFTNLVSKMKRKSVSMLKFLYPSLVAMSQENIFESSFFLLLQVYLKSLDVLGPTWVQNYLFQFIKSKAQENERWIECYCQIGKFLVDSGIFTWWTFFTYNGLDAALHFQLAFHSLIIDFCDTDSFELLKKPLYSIASDLLLISKDDAFYHFLSNLLKRAHIIVADLKPVSDENELLRLAYIFSKALKKNAYQDLLAVFLSLAKKHYDEGDISRNFLAKYLEFLNKNCLTELRNNQLFISLRRELGISSDEDEKCAFWDSFNEAGDILSKAAFVETGIVQACCTGNEIDGYLDNLSTLFTSTMLESPFAFFSDLVIAHIFENRPFFDVNIKNFLLSHFIDLFNKVLKMKFEQVSPDEFAELCKVYRALCIECATDDTFNSNSDLIAAKDAFLVSVLRIADGFWEHDKLLQLRMLDSNMNIPNQIPHTTLQSSLSAIVIKIIESNIGKIEASEPFKTFKNT
For the molecule B1, in test [2], the binding result is recorded as “binds”.

B2: Mms22 with alanine substitution of D13 and Y33 in the Rtt107-interaction-motif (mms22^RIM) (protein, UniProt Q06164 1-1454)
chain: MDVDEPNPIVISASEATDEEISIIYEPEFNENALWAEENVQEASRSQKIVTERLSLDSTAGESCTPSVVTDTQVTTGLRWSLRKRKAIQKMPYSLERIKHRQLLEGYDISSFDSISNQLTLPKNASTVIHSNDILLTKRTGKPLDEQKDVTIDSIKPENSSVQSQRYDSDEEIPKKRHRTFKDLDQDIVFQSGDSTEDEQDLASTNLQNTQNDEVIFRGRVLNVRTGYRGVLPRVAWEKSLQKQQSSKVTKRKTQLLNHKGVAKRKMNRSAHIEDEEQNLLNDLIAPDDELDIEENAPPDIYLGNLPEDREANEKELKELQEYYESKYSEDAQSAGTSGFNLNEEYRNEPVYELEYDGPGSCISHVSYKDQPIIYLNSRHSDSGFSEQYNISAEDNQSVISLDAAEEHNDGIIDKMLVKPKRIKATNDANFLNTKSKRVRRYKYKYRNSCLAPSTKAIKVGKRSAHKSHLAANNPVSFVSKKNHVIDDYFFEELESQSLEQDDSSSLKPQKKRRKKKAPIYSSFSADLESRRKPVFNTVVEVPTNRYAFTKPNVRNRDSINHDMEFEEEDSNQELGPIMVVLDSILLKKPFEPPNFFKIQLSDKSFLLSKLNPADIATSLQKIFRVIIDKGITDTELVHFNESLIAFLVHLDMPELFDLIGEFHREFRSKVNSLRKKAKPIHFFQIAACQLMFLEISRYNKISAAAKFDMDVKLLDHIVSFFKLLSVCYDSVMKNPMQYLYTSYYILSAVVDVIHKKEALWDLFQKHPFSPHISLLLVNIFPTKVCRWQVLRLDSEFQPLSSAFRFINYCIETCNWNVTNSLILSLDRIFKRRRFSDFEEESDLSQNNKIIYPPTNQLTSRLMFNRYLHLLTLCELSSSDTQRVIPMGDISMNDSLSVLKNRLNLLIVLATRFDLNLEKRFQELTRPLYSKEYLNLHTQNTVRTITTLIMQASLSFLEISRIKNHPFSGKFIASLFDKLVLQQPSISGVTENFLKEFTNLVSKMKRKSVSMLKFLYPSLVAMSQENIFESSFFLLLQVYLKSLDVLGPTWVQNYLFQFIKSKAQENERWIECYCQIGKFLVDSGIFTWWTFFTYNGLDAALHFQLAFHSLIIDFCDTDSFELLKKPLYSIASDLLLISKDDAFYHFLSNLLKRAHIIVADLKPVSDENELLRLAYIFSKALKKNAYQDLLAVFLSLAKKHYDEGDISRNFLAKYLEFLNKNCLTELRNNQLFISLRRELGISSDEDEKCAFWDSFNEAGDILSKAAFVETGIVQACCTGNEIDGYLDNLSTLFTSTMLESPFAFFSDLVIAHIFENRPFFDVNIKNFLLSHFIDLFNKVLKMKFEQVSPDEFAELCKVYRALCIECATDDTFNSNSDLIAAKDAFLVSVLRIADGFWEHDKLLQLRMLDSNMNIPNQIPHTTLQSSLSAIVIKIIESNIGKIEASEPFKTFKNT
For B2, in test [2], the binding entry is on record as “no binding”.

B3: Dpb11 (protein, UniProt P47027 1-764)
chain: MKPFQGITFCPTAINNEILAKKISKKIIKLGGIFSKDLTRQVNVLVVGSTTNTNKFKFAVKHRFDIIFIDIQAIDDIYQLWLSGENILPDSNTATMTGSTYEMLKILYRRFSFKYLHNFNIFIGRITDTNITSIDSLVRSIKKLGCSSYNYQNFVIKDTSSHNDDDDQGQNGQISIFVTDTLLGARVNAAIEQNIPIVHFKWILDCQKRSALLPYDPYYLLPNIKDLPYDSIGSNSCDCWDKINTTFPTNIDAQSSLQRQQSSSTLTPSLPKTSSLLNKFKPKGEKIWDKAMSLQQHSKTNFSVLGQSPLSINNKQEDLSDNSTLIFKNCAFIIHHIFPGNHRSILTKIVVQNGGKIETSYLSGIYDHSYYIIPSNKALDSFNDLPEIIDDNDGIVTEFFIERCLYYQKLLHPIDLWSKPFLSTIEFQVSSSSKLLHHEFSSSPFLNVTITGFSGVELLHLTKVLNLLKPMGINYVEYLNKSTDILLINLAALPSIPKTHPLWSNEFSDLFTQFCINNNNDDPGDNNRKDFQNNSILRNSMKRKIEYIKKFHSIPVVTPAFIFKLLSAASGENNEIFLNNIKWCIICPRGHKDDFKCKIKKPYYTSISSEKKYQNNDPKIDKTILLKRNNSSLSEHSMKDTKNELLQKIRETDSGRKKRSVSSSIMDVSSERQMPDTKRIKLESLPKNFVPKQIKRTTSWGTIMSENVPTEQPTAISNPEEIPRTEEVSHTQVTYGSIQDKKRTASLEKPMRRQTRNQTKELDS
In the case of B3, in test [2], the binding result is “binds”.
